Test results reported in the supplement of paper PMC12889115.
The list shows a part of the results. No stated cut-off is given here; in the data, active = 25% or less and inactive = the rest. Many values rest on one well or one pass, so single values are uncertain.

Tests used:
[1] = tested on: Salmonella enterica serovar Typhimurium SL1344; assay: bacterial growth OD600 after 18 h in MHB with 0.5 µg/mL polymyxin B; higher = more bacterial growth (less inhibition); conditions: 25 µM; polymyxin B 0.5 µg/mL; system: broth
Procedure: (§1)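 Secondary screen of the 553 primary hits at 25 µM. (i) S. Typhimurium SL1344 grown in Mueller-Hinton broth with 0.5 µg/mL polymyxin B, OD600 read after 18 h. (ii) SAFIRE assay: RAW 264.7 macrophages infected with S. Typhimurium sifB::gfp (MOI 30); compound added 2 h post-infection; cells fixed at 18 h; GFP-positive pixel fraction per macrophage imaged by confocal microscopy and expressed as % of DMSO control.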

[2] = tested on: Salmonella enterica serovar Typhimurium SL1344; assay: intramacrophage bacterial GFP load (SAFIRE), percent of DMSO control (% of DMSO); higher = more intracellular bacteria (less inhibition); conditions: 25 µM; system: infected RAW 264.7 macrophages
Procedure: as §1
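Wherever bacterial growth OD600 after 18 h in MHB with 0.5 µg/mL polymyxin B is given: polymyxin B level opens the outer membrane while sparing the inner membrane, with novobiocin wells as reference growth inhibitor.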
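Wherever intramacrophage bacterial GFP load (SAFIRE), percent of DMSO control is given: compounds tested were the hits of an earlier 50 µM broth growth screen of a drug-like diversity library run with polymyxin B.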

Cc1ccn(CCC(=O)N(Cc2ccncc2)Cc2cccc(OCCc3ccc(F)cc3)c2)n1
bacterial growth OD600 [1]: 0.002
intramacrophage bacterial GFP load [2]: inactive: 63.5

CC(Cc1ccccn1)NC(=O)CN1Cc2ccccc2OC(c2ccccc2F)C1 (stereo unspecified)
bacterial growth OD600 [1]: 0.006
intramacrophage bacterial GFP load [2]: inactive: 48.3

Cc1ccc2c(c1)CN(CC(=O)N1CCC(c3ccncc3)CC1)CC(c1ccsc1)O2 (stereo unspecified)
bacterial growth OD600 [1]: 0.001
intramacrophage bacterial GFP load [2]: inactive: 47
